Hit rate of the full screen: of about 39,000 compounds, about 220 (0.56%) showed activity. Some of the results follow.
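Further: static incubation at 37 °C against the wild-type strain, values averaged over two biological replicates.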

This test has as its system Escherichia coli K-12 BW25113. The test is described as follows: relative growth (OD600 normalised to plate interquartile mean) (fraction); higher = less growth inhibition, active = 0.2 or less. The note with it: 50 µM; LB; incubation time: overnight (16-24 h).
Take `COc1ccc(S(=O)(=O)Nc2ccc3c(c2)C(=O)N([C@@H](C)CO)C[C@@H](C)[C@@H](CN(C)CC2CCCCC2)OCCCC[C@@H](C)O3)cc1`: the relative growth was inactive: 0.971.

On to `C[C@@H]1CCCCO[C@@H](CN(C)S(=O)(=O)c2ccc(F)cc2)[C@H](C)CN([C@H](C)CO)C(=O)c2cc(NC(=O)Cc3ccccc3)ccc2O1`, for which the relative growth was inactive: 1.01. Next, `Cc1noc(C)c1NC(=O)Nc1ccc2c(c1)C(=O)N([C@@H](C)CO)C[C@@H](C)[C@H](CN(C)S(=O)(=O)c1ccccc1)OCCCC[C@@H](C)O2`: inactive: 0.983. The result for `CC12CCC3c4ccc(O)cc4CCC3C1CC(O)C2O` (centres undefined) reads inactive: 1.1; that for `C[C@H](CO)N1C[C@H](C)[C@H](CN(C)C(=O)c2ccccn2)Oc2cc(C#Cc3ccccc3)ccc2S1(=O)=O`, inactive: 0.999. As to `C[C@@H]1CN([C@@H](C)CO)C(=O)c2cc(NC(=O)C3CCCCC3)ccc2O[C@@H](C)CCCCO[C@H]1CN(C)Cc1ccc(C(=O)O)cc1`, the relative growth is inactive: 0.977.

In the case of `C[C@@H]1CN([C@H](C)CO)S(=O)(=O)c2ccc(C#CC3(O)CCCC3)cc2O[C@@H]1CN(C)C(=O)c1ccccc1`, the relative growth is inactive: 0.993.

As to `N=C(N)NCCNS(=O)(=O)c1cccc2cnccc12`, the relative growth was inactive: 0.956. The result for `O=C1CC[C@@H](C(=O)N2CSC[C@H]2C(=O)O)N1` reads inactive: 0.982; that for `O=C(C1=C[C@@H](c2ccsc2)C[C@@H](OCCCCO)O1)N1CCN(Cc2ccc3c(c2)OCO3)CC1`, inactive: 0.985; that for `C[C@@H]1CN([C@@H](C)CO)C(=O)c2cc(NS(=O)(=O)c3ccc(Cl)cc3)ccc2O[C@@H]1CN(C)Cc1ccc(Oc2ccccc2)cc1`, inactive: 1. Next, `C[C@@H]1CN([C@H](C)CO)C(=O)Cc2cc(NC(=O)Cn3cnnn3)ccc2O[C@H]1CN(C)S(=O)(=O)c1ccccc1`: inactive: 1.03; `CCC(=O)N(C)C[C@H]1Oc2ncc(C#C[C@H](C)O)cc2C(=O)N([C@@H](C)CO)C[C@@H]1C`: inactive: 1. The result for `C[C@H]1CCCCO[C@@H](CN(C)C(=O)Nc2ccc3c(c2)OCO3)[C@@H](C)CN([C@@H](C)CO)C(=O)c2cc(NC(=O)Nc3ccc(F)cc3)ccc2O1` reads inactive: 1.05; that for `C[C@H]1CN([C@@H](C)CO)C(=O)c2cccc(NC(=O)c3ccncc3)c2O[C@H]1CN(C)Cc1ccc(-c2ccccc2)cc1`, inactive: 0.991; that for `CNC(=O)C[C@@H]1CC[C@H]2[C@@H](COC[C@@H](O)CN2C(=O)c2ccccn2)O1`, inactive: 0.989. Regarding `O=C(C[C@@H]1C[C@@H]2c3cc(NS(=O)(=O)c4ccc(F)cc4)ccc3O[C@@H]2[C@@H](CO)O1)NCc1cccnc1`, the relative growth was inactive: 0.997. The result for `CC(C)NC(=O)N(C)C[C@H]1OCCCC[C@H](C)Oc2ccc(NS(C)(=O)=O)cc2C(=O)N([C@@H](C)CO)C[C@@H]1C` reads inactive: 1; that for `C[C@@H]1CN([C@H](C)CO)C(=O)c2cc(NC(=O)CCN3CCOCC3)ccc2O[C@H]1CN(C)Cc1ccccc1`, inactive: 1.03; that for `CC(C)CC#Cc1ccc2c(c1)O[C@H](CN(C)C(=O)Cc1cccnc1)[C@@H](C)CN([C@H](C)CO)S2(=O)=O`, inactive: 1.01.

For the molecule `C[C@@H]1CN([C@@H](C)CO)C(=O)c2cccc(NC(=O)C3CCOCC3)c2O[C@@H]1CN(C)Cc1ccc(C(=O)O)cc1`, the relative growth was inactive: 1. With `COc1ccc(S(=O)(=O)Nc2ccc3c(c2)C(=O)N([C@@H](C)CO)C[C@H](C)[C@@H](CN(C)C(=O)Nc2c(C)noc2C)O3)cc1`, the relative growth was inactive: 0.996.

For `CC(C)C[C@H](NC(=O)N1CCCCCC1)C(=O)N[C@H](Cc1cn(C)c2ccccc12)C(=O)N[C@H](Cc1ccccn1)C(=O)O`, the relative growth is inactive: 1.

Turning to `C[C@H](CO)N1C[C@H](C)[C@@H](CN(C)Cc2ccc(Cl)c(Cl)c2)Oc2ccc(NC(=O)C3CCCCC3)cc2C1=O`, the relative growth was inactive: 0.896. For the molecule `C=CCOC(=O)[C@H]1[C@@H]2C(=O)O[C@@H](c3ccccc3)[C@@H](c3ccccc3)N2[C@@H](c2ccc(OCCOC(=O)[C@H]3C[C@H]4C(=O)N[C@@H](CCCCNC(C)=O)C(=O)N4[C@H]3c3ccc(O)cc3)cc2)[C@]12C(=O)Nc1ccccc12`, the relative growth was inactive: 1.05. Next, `O=C(C[C@@H]1C=C[C@H](NC(=O)Nc2cc(F)ccc2F)[C@H](CO)O1)NCCCN1CCOCC1`: inactive: 0.926; `Cc1n[nH]c(=O)nc1NCCN(C)C`: inactive: 0.986; `COc1ccc(CN(C)C[C@@H]2OCCCC[C@H](C)Oc3ccc(NC(=O)c4ccccc4)cc3C(=O)N([C@H](C)CO)C[C@H]2C)cc1`: inactive: 0.999.

Turning to `COCCNC(=O)C[C@@H]1C[C@@H]2c3cc(NC(=O)CN(C)C)ccc3O[C@@H]2[C@@H](CO)O1`, the relative growth was inactive: 0.999.

Regarding `O=C(O)C[C@@H]1C(=O)O[C@H]2[C@@H](OC(=O)c3cc(O)c(O)c(O)c3)[C@H](OC(=O)c3cc(O)c(O)c4c3[C@H]1[C@H](O)C(=O)O4)[C@H](OC(=O)c1cc(O)c(O)c(O)c1)O[C@@H]2COC(=O)c1cc(O)c(O)c(O)c1`, the relative growth is inactive: 0.566. Next, `COCC(=O)N1[C@@H]2c3cccc(=O)n3C[C@@H]2[C@@H](CO)[C@@H]1C(=O)NCc1ccccc1`: inactive: 1; `C[C@H](CO)N1C[C@H](C)[C@H](CN(C)CC2CC2)Oc2ccc(NS(=O)(=O)c3ccc(F)cc3)cc2C1=O`: inactive: 0.992; `C[C@H](CO)N1C[C@H](C)[C@H](CN(C)C(=O)Cc2cccnc2)Oc2ncc(C#CC3(O)CCCC3)cc2C1=O`: inactive: 1. Next, `CO[C@@H]1CN(C)C(=O)c2ccc(NC(=O)C3CC3)cc2OC[C@@H](C)N(C(=O)Nc2ccc(C(F)(F)F)cc2)C[C@H]1C`: inactive: 0.941; `O=C(O)C[C@@H](NCCN[C@H](CC(=O)O)C(=O)O)C(=O)O`: inactive: 0.991; `C[C@@H]1CN([C@@H](C)CO)C(=O)Cc2cc(NC(=O)Nc3ccc(F)cc3)ccc2O[C@@H]1CN(C)Cc1ccc(C(F)(F)F)cc1`: inactive: 1.03. For `CCS(=O)(=O)Nc1ccc2c(c1)C(=O)N(C)[C@H]1CC[C@H](CC(=O)NCCOC)O[C@@H]1CO2`, the relative growth was inactive: 0.971. `COc1ccc(S(=O)(=O)Nc2ccc3c(c2)CC(=O)N([C@H](C)CO)C[C@H](C)[C@H](CN(C)S(=O)(=O)c2c(C)noc2C)O3)cc1`: the relative growth was inactive: 0.993. Turning to `O=C(C[C@H]1CC[C@@H]2[C@H](COC[C@H](O)CN2C(=O)Nc2cccc(F)c2)O1)NCCCN1CCOCC1`, the relative growth was inactive: 0.918. The result for `C[C@@H]1CN([C@H](C)CO)C(=O)Cc2cc(NC(=O)Cn3cnnn3)ccc2O[C@H]1CN(C)Cc1ccc(Cl)c(Cl)c1` reads inactive: 0.946. Regarding `NC1CCC(c2ccccc2)CC1` (centres undefined), the relative growth was inactive: 0.987.

For the molecule `C[C@@H]1CN([C@H](C)CO)C(=O)c2cc(NC(=O)NC3CCCCC3)ccc2O[C@@H](C)CCCCO[C@@H]1CN(C)C(=O)NC1CCCCC1`, the relative growth was inactive: 1.03. Next, `C[C@@H]1CN([C@H](C)CO)C(=O)c2cc(NC(=O)C3CC3)ccc2O[C@H]1CN(C)C(=O)NC1CCCCC1`: inactive: 0.992.

`COc1ccc(S(=O)(=O)N(C)C[C@@H]2Oc3c(NC(=O)c4cc(C)nn4C)cccc3C(=O)N([C@H](C)CO)C[C@H]2C)cc1`: the relative growth was inactive: 1.02.

Regarding `C[C@H]1CN([C@@H](C)CO)C(=O)c2cccc(NC(=O)C3CCOCC3)c2O[C@@H]1CN(C)Cc1ccc(Oc2ccccc2)cc1`, the relative growth was inactive: 1.02. Next, `CC(C)NC(=O)N(C)C[C@@H]1Oc2c(NS(=O)(=O)c3ccccc3)cccc2C(=O)N([C@H](C)CO)C[C@@H]1C`: inactive: 0.99. Regarding `C[C@H]1CN([C@@H](C)CO)S(=O)(=O)c2ccc(Br)cc2O[C@H]1CN(C)C(=O)c1cnccn1`, the relative growth is inactive: 0.992. Next, `Cc1ccc(S(=O)(=O)NCC[C@H]2CC[C@H](NS(=O)(=O)c3ccccc3Cl)[C@H](CO)O2)cc1`: inactive: 0.96.

With `[O-][NH2+]N1CCCC1`, the relative growth is inactive: 1.04. Take `CCOC(=O)c1ccc(N2NC(=O)/C(=C/c3ccc([N+](=O)[O-])o3)C2=O)cc1`: the relative growth was inactive: 0.984.

In the case of `NCC1OC(OC2C(N)CC(N)C(OC3OC(CO)C(O)C(N)C3O)C2O)C(O)C(O)C1O.O=S(=O)(O)O` (centres undefined), the relative growth is inactive: 0.982. The result for `C[C@@H]1CN([C@H](C)CO)C(=O)c2cccc(NS(=O)(=O)c3ccc(F)cc3)c2O[C@@H]1CN(C)Cc1ccc(Cl)c(Cl)c1` reads inactive: 1.01; that for `C=CC[C@@H](CC(=O)NCCO)C(=O)N[C@H](COC(=O)[C@H](CC=C)CC(=O)OC(C)(C)C)Cc1ccccc1`, inactive: 0.964; that for `C[C@@H]1CN([C@H](C)CO)C(=O)c2cc(C#CCN(C)C)cnc2O[C@H]1CN(C)S(C)(=O)=O`, inactive: 0.998. For `C[C@H](CO)N1C[C@H](C)[C@@H](CN(C)Cc2ccc(Cl)c(Cl)c2)OCCCC[C@H](C)Oc2ccc(NC(=O)Nc3ccc(C(F)(F)F)cc3)cc2C1=O`, the relative growth was inactive: 0.985. On to `Cc1noc(C)c1NC(=O)N(C)C[C@@H]1OCCCC[C@H](C)Oc2ccc(NC(=O)CCC(F)(F)F)cc2C(=O)N([C@@H](C)CO)C[C@H]1C`, for which the relative growth was inactive: 0.998.

Regarding `C[C@@H]1CN([C@H](C)CO)C(=O)c2cccc(NC(=O)C3CC3)c2O[C@H]1CN(C)S(=O)(=O)c1ccccc1`, the relative growth is inactive: 0.983.

Consider `C[C@@H]1CN([C@@H](C)CO)C(=O)Cc2cc(NC(=O)Nc3ccc(C(F)(F)F)cc3)ccc2O[C@H]1CN(C)C(=O)Nc1ccc(F)cc1`, for which the relative growth is inactive: 1.01. The result for `CN1C(=O)c2cc(NC(=O)C3CCCC3)ccc2OC[C@H]2O[C@@H](CC(=O)NCCc3ccncc3)CC[C@@H]21` reads inactive: 0.982.
